# According to PubChem BioAssay AID686979 (National Center for Advancing Translational Sciences (NCATS), 2013):
# Hit rate of the full screen: of about 420,000 compounds, about 50,000 (12%) were called active. The shares of active, inactive and inconclusive entries below differ from those in the screen. Calls follow the shape of the dose curve; as a rule, active = well fitted inhibition curve with a large enough effect; inconclusive = small, poorly fitted or top-dose-only effect; inactive = flat fitted curve, though single readings scatter. No potency is given beside an inconclusive call; the fits are too rough.
# Assay: qHTS for Inhibitors of human tyrosyl-DNA phosphodiesterase 1 (TDP1): qHTS in cells in presence of CPT; also: nearly all actives have a fitted effect of over 55% in size
# Details: chicken DT40 Tdp1-/-;hTDP1 cells + 20 nM CPT, ATP luminescence, 48 h; activity change, negative = growth inhibition: at 46.2 µM (top of the series) unless noted
# How it was run: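 Chicken DT40 Tdp1-/- cells complemented with human TDP1, 400 cells/well, exposed to compounds plus 20 nM camptothecin for at least 48 h at 37 C; viability read as ATP content by CellTiter-Glo luminescence.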
# % is scaled to controls: 0 for no effect and ±100 for the full control effect; potency is read from the fitted curve at half-maximal effect; tags tell the direction and shape of the fitted curve.
SMILES,Potency,"activity change, negative = growth inhibition"
CCOC(=O)COc1cccc2c(=O)n(CC(=O)NCc3ccc(F)cc3)ccc12,active: 0.58 µM,–
COC(=O)C1=C(C)N(Cc2ccccc2)C(=NCCCCO)N[C@H]1CCc1ccccc1,"inconclusive [inhibitor, single point]",–
Cc1ccc(NC(=O)CSc2nc3ccccc3n2CC(=O)N2CCC(C)CC2)cc1C,"inconclusive [inhibitor, single point]",–
Cc1cc(C)c(NC(=O)CN2C(=O)NC(Cc3ccccc3)C2=O)c(C)c1 (stereo unspecified),inactive,–
CN1CCC(C(=O)N2CCCC(C(=O)c3ccc4c5c(cccc35)CC4)C2)CC1 (stereo unspecified),"inconclusive [inhibitor, single point]",–
CCC(=O)Nc1ccc2nc(C3CC3)n(Cc3ccc(C(C)(C)C)cc3)c(=O)c2c1,active: 18.4 µM,–
CC(=O)Nc1ccc(N=NC2C(=O)N(C(N)=S)N=C2C)cc1 (stereo unspecified),inactive,–
O=c1c(S(=O)(=O)c2ccc(Cl)cc2)cn(Cc2cccc(F)c2)c2ccc(F)cc12,"inconclusive [inhibitor, partial curve, poor fit]",–
COC(=O)c1ccccc1-c1c2ccc(=N)cc-2oc2cc(N)ccc12,active: 0.731 µM,–
Cc1nc2cccc(C(=O)NC3CCCCC3)c2o1,inactive,–
O=C(CCN1CCCCCC1)c1ccccc1,active: 3.26 µM,–
Cc1ccc(-c2cnc(NC(=O)c3cccc(Br)c3)s2)c(C)c1,"inconclusive [inhibitor, single point]",–
O=C(/C=C/c1ccccc1Cl)Nc1cccc(S(=O)(=O)NC2=NCCCCC2)c1,–,inconclusive: -32.1% [inhibitor]
CCC(=O)Oc1cc(C(C)(C)C)cc2cc(-c3nc(-c4ccc(OC)cc4OC)no3)c(=O)oc12,"inconclusive [inhibitor, single point]",–
CCCCN1CCCCC1(C)C(=O)NCc1cccs1 (stereo unspecified),inactive,–
O=C(c1ccc(N2CCOCC2)c([N+](=O)[O-])c1)N1CCN(S(=O)(=O)c2cccs2)CC1,"inconclusive [inhibitor, single point]",–
Cc1cccc(-n2cc(CN3CCN(Cc4nccn4C)CC3)c(-c3cccc(F)c3)n2)c1,"inconclusive [inhibitor, single point]",–
O=C(NC(Nc1ncc(S(=O)(=O)c2ccc([N+](=O)[O-])cc2)s1)(C(F)(F)F)C(F)(F)F)c1ccc(Cl)cc1,"inconclusive [inhibitor, single point]",–
CCOc1ccc(Oc2c(/C=N/NC(=O)C3CC3)c(C)nn2-c2ccccc2)cc1,"inconclusive [inhibitor, single point]",–
Cc1ccc(NC(=O)CSC2=C(C#N)C(c3ccco3)C3=C(CCCC3=O)N2)cc1 (stereo unspecified),inactive,–
Cc1ccc2sc(N(Cc3cccnc3)C(=O)Cc3ccccc3)nc2c1C,"inconclusive [inhibitor, single point]",–
COc1ccc(Cl)cc1NC(=O)Cn1c(=O)oc2cc(S(=O)(=O)N3CCCCCC3)ccc21,"inconclusive [inhibitor, partial curve]",–
O=C(c1cccs1)c1cn(CCOc2ccc(Cl)cc2)c2ccccc12,"inconclusive [inhibitor, single point]",–
COc1ccc(-c2coc3cc(OC(C)=O)c(OC)cc3c2=O)cc1,inactive,–

SMILES,Potency,"activity change, negative = growth inhibition"
CCCc1nc(NCc2ccncc2)c2nnn(Cc3ccccc3F)c2n1,"inconclusive [inhibitor, partial curve]",–
Cc1ccc(S(=O)(=O)Cc2ccccc2Cl)cc1,"inconclusive [inhibitor, single point]",–
N#C/C(=C\c1c(N2CCOCC2)nc2ccccn2c1=O)C(=O)NC1CCS(=O)(=O)C1 (stereo unspecified),inactive,–
CC1CC(C)CN(S(=O)(=O)N2CCCC(C(=O)NCc3ccccc3Cl)C2)C1 (stereo unspecified),"inconclusive [inhibitor, single point]",–
C=CCn1c(=O)c(C(=O)Nc2ccc(C)cn2)c(O)c2ccccc21,"inconclusive [inhibitor, single point]",–
Cc1oc(-c2ccccc2Cl)nc1CSCC(=O)N1CCCC1,"inconclusive [inhibitor, partial curve]",–
O=C(CN(Cc1ccco1)C(=O)CNS(=O)(=O)c1ccc(F)cc1)NCc1ccccc1,inactive,–
CC(C)(C)NC(=O)/C(=C/c1ccco1)c1ccccc1,inactive,–
O=C(C[C@H]1C(=O)N(Cc2cccnc2)C[C@@H]1Cc1ccccc1)Nc1ccccc1,"inconclusive [inhibitor, single point]",–
CCOC(=O)c1cnc2c(cnn2C)c1NCCC#N,"inconclusive [inhibitor, full curve, poor fit]",–
Cc1ccc(C(=O)c2cn(Cc3ccccc3F)c3cc4c(cc3c2=O)OCCO4)cc1,"inconclusive [inhibitor, single point]",–
O=C(Nc1ccc(C(=O)N2CCCCC2)cc1)C1=CSCCO1,inactive,–
CC(=O)c1ccccc1OCC(O)CN1CCN(C(c2ccccc2)c2ccccc2)CC1 (stereo unspecified),"inconclusive [inhibitor, single point]",–
O=C(C1CCN(Cc2ccc(F)cc2)CC1)N1CCN(C/C=C/c2ccccc2)CC1,"inconclusive [inhibitor, single point]",–
COc1ccccc1N1CCN(C(=O)c2cc(N3C(=O)C4C5CCC(C5)C4C3=O)ccc2Cl)CC1 (stereo unspecified),"inconclusive [inhibitor, single point]",–
Cc1cccc(C)c1OCC(=O)NCc1nnc(SCC(=O)NC2CCCCC2)n1C,inactive,–
Oc1ccc(-c2nc3ccccc3s2)c(O)c1,inactive,–
Cc1ccc(NC(=O)c2ccccc2[N+](=O)[O-])nc1,"inconclusive [inhibitor, single point]",–
O=C(c1cc(-c2ccccc2O)on1)N1CCc2ccccc2C1,"inconclusive [inhibitor, single point]",–
CC[C@@]1(c2ccccc2)C(=O)N(C(=O)OC)N1C(=O)OC,active: 8.2 µM,–
CN(C)CCNC(=O)c1ccc(Cn2c(SCc3ccc(F)cc3)nc3cccnc32)cc1,"inconclusive [inhibitor, single point]",–
CCNc1nnc(SCC(=O)NC2CCCCCC2)s1,inactive,–
Oc1ccc(/C=N/NC(=S)NC2CC3CCC2C3)cc1 (stereo unspecified),"inconclusive [inhibitor, single point]",–
COc1ccc(-n2c(COc3ccc(Cl)cc3Cl)n[nH]c2=S)cc1,"inconclusive [inhibitor, single point]",–

SMILES,Potency,"activity change, negative = growth inhibition"
CCOC(=O)C1(CCOC)CCN(C/C=C/c2ccccc2OC)CC1,active: 10.3 µM,–
Cc1ccc(C2(C)NC(=O)N(CC(=O)NCCN3C(=O)S/C(=C\c4cccnc4)C3=O)C2=O)cc1 (stereo unspecified),"inconclusive [inhibitor, single point]",–
O=C(O)COc1ccc(/C=N/NC(=O)C2CCCN2S(=O)(=O)c2ccc(Cl)cc2)cc1 (stereo unspecified),inactive,–
CCOC(=O)Nc1nnc(-c2cccc(OC)c2)s1,inactive,–
N#Cc1ccc(-c2cccs2)nc1SCc1cccnc1,active: 0.517 µM,–
CCN(CC)c1cc(C)c2cc(NC(=O)c3ccccc3F)ccc2n1,active: 20.6 µM,–
COc1ccc(OC)c(CNC(=O)c2cc3ccc4cccnc4c3[nH]2)c1,"inconclusive [inhibitor, single point]",–
COc1cc2c(NC3CCN(C)CC3)nc(N3CCCN(C)CC3)nc2cc1OCCCN1CCOCC1,active: 7.94 µM,–
CCS(=O)(=O)n1nc(-c2ccc(OC)cc2)nc1N,inactive,–
CCOC(=O)c1c(NC(=O)CN2C(=O)NC3(CCCC3)C2=O)sc(C)c1CC,"inconclusive [inhibitor, single point]",–
CCn1c(C)c(C)c2cc(C(=O)Nc3cccc(Cl)c3)ccc21,"inconclusive [inhibitor, single point]",–
O=C(Nc1cc([N+](=O)[O-])ccc1N1CCOCC1)c1cccs1,inactive,–
O=C(Cc1csc(-c2ccc(F)cc2)n1)Nc1cccc(S(=O)(=O)NC2=NCCC2)c1,inactive,–
COc1ccccc1-c1nnc(C2CCN(S(=O)(=O)c3ccccc3[N+](=O)[O-])CC2)o1,"inconclusive [inhibitor, single point]",–
Cc1nn(Cc2ccc(Cl)cc2)c(C)c1NC(=O)c1ccc([N+](=O)[O-])cc1,inactive,–
O=c1c(Cl)c(N2CCC3(CC2)OCCO3)cnn1C12CC3CC(CC(C3)C1)C2,"inconclusive [inhibitor, partial curve]",–
Cc1ccc(OCc2ccc(C(=O)N3CCCC3)o2)cc1C,"inconclusive [inhibitor, partial curve, poor fit]",–
Cc1ccsc1/C=N/NS(=O)(=O)c1ccc([N+](=O)[O-])cc1,inactive,–
COCCn1ccc2c(OCC(=O)Nc3ccccc3OC)cccc2c1=O,active: 18.4 µM,–
CCc1ccc(/C=C2\SC(=S)N(CCCC(=O)Nc3ccccc3C(=O)O)C2=O)cc1,inactive,–
O=C(COC(=O)c1ccc2c(c1)OCCO2)NCc1ccccc1,"inconclusive [inhibitor, single point]",–
CCOC(=O)C1CCCN(C(=O)c2cc3c(=O)n(C)c4ccccc4c3n2C)C1 (stereo unspecified),"inconclusive [inhibitor, single point]",–
CCCSc1ccc([C@@H]2[C@@H]3C(=O)N(C)C(=O)[C@@H]3[C@]3(C(=O)OC)CCCCN23)cc1OC,"inconclusive [inhibitor, single point]",–
